The full ranking holds about 33,000 sequences; the median of “E-score (-0.5 to 0.5)” is about -0.041, and the highest 2% start at about 0.37. The list shows a part of the results.

The target of the test is T1, Ecm22 (UniProt Q05958).
T1 sequence: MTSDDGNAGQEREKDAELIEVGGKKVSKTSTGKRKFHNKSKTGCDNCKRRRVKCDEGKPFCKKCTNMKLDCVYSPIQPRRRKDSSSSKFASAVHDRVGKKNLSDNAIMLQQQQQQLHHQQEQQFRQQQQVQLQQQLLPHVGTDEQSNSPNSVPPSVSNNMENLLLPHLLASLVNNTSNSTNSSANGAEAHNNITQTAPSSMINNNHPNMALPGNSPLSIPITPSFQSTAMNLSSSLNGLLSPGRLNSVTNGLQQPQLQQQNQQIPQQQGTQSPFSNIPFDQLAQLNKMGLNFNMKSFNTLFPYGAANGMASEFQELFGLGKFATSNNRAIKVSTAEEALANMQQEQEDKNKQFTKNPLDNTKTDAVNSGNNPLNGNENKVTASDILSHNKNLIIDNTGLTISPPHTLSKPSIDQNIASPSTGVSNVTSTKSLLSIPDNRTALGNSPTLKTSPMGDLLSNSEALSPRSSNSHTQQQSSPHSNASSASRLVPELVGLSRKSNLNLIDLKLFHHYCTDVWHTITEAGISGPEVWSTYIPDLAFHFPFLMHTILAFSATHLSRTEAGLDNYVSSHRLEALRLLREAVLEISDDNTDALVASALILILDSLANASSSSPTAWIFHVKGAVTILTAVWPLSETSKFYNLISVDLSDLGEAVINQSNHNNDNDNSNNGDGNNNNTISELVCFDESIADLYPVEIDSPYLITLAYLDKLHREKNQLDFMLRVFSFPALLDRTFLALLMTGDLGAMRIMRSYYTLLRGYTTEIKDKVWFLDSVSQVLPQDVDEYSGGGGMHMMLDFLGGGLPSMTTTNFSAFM
As to the kind of experiment: PBM E-score (8-mer binding enrichment) (E-score (-0.5 to 0.5)); higher = stronger / more preferred TF binding; most listed sequences are background and not binding sites. The conditions noted are these: protein concentration: 200 nM; construct: GST-full length. How it is done:
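Universal 'all 10-mer' protein binding microarrays (Agilent AMADID 015681) probed with GST-tagged S. cerevisiae TFs (full-length or DBD) made by in vitro transcription/translation (PURExpress), about 100-200 nM. Bound TF was detected with fluorescent anti-GST. Each ungapped 8-mer (which stands for itself and its reverse complement) is scored by the PBM enrichment score (E-score), a modified Wilcoxon-Mann-Whitney statistic from -0.5 to +0.5, computed with the Universal PBM Analysis Suite. Scale: above 0.35 generally sequence-specific binding.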
As to AAAGCTGG, the “PBM E-score” value was -0.148.

For AGAATTTG, the “PBM E-score” value was -0.0454. GTGTCAAC: the “PBM E-score” value is -0.212. As for GTAGGAAA, the figure is -0.0658; as for ATATATAC, 0.299; as for AGCTCCCG, -0.104. As for CATTCAAA, the figure is 0.0727; as for GCTCCGTA, 0.351; as for CACAGTCG, 0.063. For ATGCAACA, the “PBM E-score” value is 0.0718. As to AACCAGGG, the “PBM E-score” value was -0.107. As to TATATCCA, the “PBM E-score” value amounted to 0.0372.

Turning to AAACTACC, the “PBM E-score” value is -0.0939. With AGGAGTGA the figure was -0.176; with ATTAATTA, -0.0178. With ACGTGGCC the figure was -0.0664; with CGTTTCGA, 0.202; with CAACCCGA, 0.187. For ACATGGCA, the “PBM E-score” value worked out at 0.0044. Turning to ACATTGTG, the “PBM E-score” value was -0.094.

As for ACGCGAAG, the “PBM E-score” value was 0.212.

Turning to AAACACGG, the “PBM E-score” value was -0.0557. With AGAGGGGG the figure was -0.0644; with GACTCCCC, -0.197; with AACCCCAC, -0.0876. GCGGCGTA: the “PBM E-score” value turned out to be 0.155. For the sequence CAAGCACG, the “PBM E-score” value was determined as 0.0668.

With AACCCCAT, the “PBM E-score” value is -0.202. In the case of CGGCCCAG, the “PBM E-score” value is -0.0878. For CCTCGACG, the “PBM E-score” value is -0.141. Turning to ACCACTAG, the “PBM E-score” value is -0.253. ACCGTCAT: the “PBM E-score” value was -0.0527. For AACCTTGT, the “PBM E-score” value was -0.173.

Regarding CAGGGGTA, the “PBM E-score” value is -0.123.

As to CGCTAGCG, the “PBM E-score” value was -0.053. Consider TCTTCCCA, for which the “PBM E-score” value is -0.289.

As to AAGAATGA, the “PBM E-score” value was -0.187.

For the sequence GCGACAGC, the “PBM E-score” value stood at 0.069.

AAGATGCT: the “PBM E-score” value was 0.0411. Take ACTCCAGC: the “PBM E-score” value turned out to be 0.0201. With CCAATCCA, the “PBM E-score” value is -0.217. With CCCGTCCG, the “PBM E-score” value is -0.309.

CATAGAAG: the “PBM E-score” value is -0.203.

In the case of CAGCGGTA, the “PBM E-score” value is -0.013. Consider ACGCCGCA, for which the “PBM E-score” value came to 0.156. Turning to TCCCTCCA, the “PBM E-score” value is -0.312. As for AGCCTAGA, the “PBM E-score” value was -0.178. As for CGTAGGGC, the figure is 0.0387; as for AATTGACA, -0.099; as for GAAATGGC, 0.0146. As for AAAAGCGC, the “PBM E-score” value was -0.0326.

Consider ACGGGACT, for which the “PBM E-score” value is 0.0948.

On to GATAAATC, for which the “PBM E-score” value stood at 0.0768. Take CAGTTACC: the “PBM E-score” value was -0.106. As for CGAGAGCC, the figure is 0.0756; as for ACCTAAGT, -0.0115; as for ATTGTCAA, -0.0485. Regarding AACTAACC, the “PBM E-score” value was found to be 0.205. With TCGAATCA the figure was 0.0193. Consider CATTCCTA, for which the “PBM E-score” value was -0.0714. As to ACTCCTTA, the “PBM E-score” value is -0.0566.

Consider GCCCACAA, for which the “PBM E-score” value is -0.164.

Regarding ACGGCACC, the “PBM E-score” value was 0.11. With AAGTATAA, the “PBM E-score” value worked out at 0.0711. As for CAATGGCG, the figure is -0.142; as for TCGAGGCA, -0.0565; as for AGCTCGAA, 0.133. Turning to TCATTCCA, the “PBM E-score” value was -0.0852. With GTGCCGCA the figure was 0.0177; with CAGCCGGA, 0.0121; with AATACTGC, 0.0709.

As for ACCAGGGG, the “PBM E-score” value was -0.206.

As to AAATCGAG, the “PBM E-score” value was -0.0701. Consider CGGCCTTC, for which the “PBM E-score” value came to 0.0185.

With CCATGTAC, the “PBM E-score” value worked out at 0.0282. Turning to ACTAATAC, the “PBM E-score” value came to 0.134.

On to GGTTTGTA, for which the “PBM E-score” value is -0.079. As to CGCTGCAC, the “PBM E-score” value came out at 0.0403. Consider CTGTTAAA, for which the “PBM E-score” value was -0.059. On to GCCGTAAC, for which the “PBM E-score” value is 0.139.

For the sequence CAAGCCAC, the “PBM E-score” value was -0.252.

Turning to AGACCCTA, the “PBM E-score” value was -0.241.

As to ATTCAGCG, the “PBM E-score” value came to 0.203.

As to AAATACGC, the “PBM E-score” value came to 0.194. Turning to AAGTCTTC, the “PBM E-score” value is -0.116. Take CGGCACAA: the “PBM E-score” value is -0.027.

The record behind these values is the supplement of paper PMC3334620.
